Experimental data from the supplement of paper PMC4604168 (melanoma cell lines).
The list shows a part of the results. Many values rest on one well or one pass, so single values are uncertain.

What was measured:
Assay in all cases: cell count relative to DMSO control; melanoma cells; higher = more viable cells
Conditions in all cases: library dose: low library concentration; 72 h
[1] = system: WM115
[2] = system: WM1716
[3] = system: WM1745
[4] = system: WM3526
[5] = system: WM3619
[6] = system: WM451Lu
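Note: cell number obtained by counting DAPI-stained nuclei in high-throughput microscope images with image analysis software, screen run in 1,536-well plates.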

Compound | cell count [1] | cell count [2] | cell count [3] | cell count [4] | cell count [5] | cell count [6]
O=C(Nc1ccccc1)c1cc([N+](=O)[O-])ccc1Cl + CCN(CC)CCCCNc1ncc2cc(-c3cc(OC)cc(OC)c3)c(NC(=O)NC(C)(C)C)nc2n1 [PD173074] (first compound 2 µM, partner dose 0.1 µM) | 99.7% | 91.8% | 106% | 127% | 94.3% | 90.2%
Cn1nnc2c(C(N)=O)ncn2c1=O [temozolomide] + CCN(CC)CCCCNc1ncc2cc(-c3cc(OC)cc(OC)c3)c(NC(=O)NC(C)(C)C)nc2n1 [PD173074] (first compound 2 µM, partner dose 0.1 µM) | 98.3% | 75.7% | 96.3% | 105% | 107% | 97.2%
Cc1cc(N2CCOCC2)cc2[nH]c(-c3c(NC[C@@H](O)c4cccc(Cl)c4)cc[nH]c3=O)nc12 + O=S(=O)(c1ccccc1)N(CC(F)(F)F)c1ccc(C(O)(C(F)(F)F)C(F)(F)F)cc1 [T0901317] (first compound 0.2 µM, partner dose 1.4 µM) | 96.1% | 90.4% | 68.6% | 102% | 71.2% | 91.7%
O=C(Nc1cc(C(F)(F)F)cc(C(F)(F)F)c1)c1cc(Cl)ccc1O + COc1cc(N2CCC(N3CCN(C)CC3)CC2)ccc1Nc1ncc(Cl)c(Nc2ccccc2S(=O)(=O)C(C)C)n1 [NVP-TAE684] (first compound 0.016 µM, partner dose 0.08 µM) | 90.6% | 98.3% | 78.8% | 84.9% | 82.7% | 90.5%
Cc1cc(N2CCOCC2)cc2[nH]c(-c3c(NC[C@@H](O)c4cccc(Cl)c4)cc[nH]c3=O)nc12 + Oc1nc(-c2ccc(C(F)(F)F)cc2)nc2c1CSCC2 [XAV939] (first compound 0.2 µM, partner dose 2 µM) | 110% | 77.2% | 61.6% | 90.3% | 86.3% | 102%
Cn1nnc2c(C(N)=O)ncn2c1=O [temozolomide] + Oc1cc(-c2nc(-c3ccccc3)[nH]c2-c2ccncc2)ccc1Cl [L779450] (first compound 2 µM, partner dose 0.2 µM) | 80.9% | 85.8% | 104% | 87.8% | 115% | 103%
Cn1nnc2c(C(N)=O)ncn2c1=O [temozolomide] + COc1ccc(COc2ccc(Cc3cnc(N)nc3N)cc2OC)cc1 [GW2580] (first compound 2 µM, partner dose 1 µM) | 105% | 83.6% | 89.4% | 104% | 104% | 85.8%
O=C(O)[C@@H]1[O][Sb](=[O])([O][Sb]2(=[O])[O][C@H]([C@H](O)CO)[C@H](O)[C@H](C(=O)O)[O]2)[O][C@H]([C@H](O)CO)[C@@H]1O (stereo partly drawn) [stibogluconate] + Nc1ncn([C@H]2C[C@H](O)[C@@H](CO)O2)c(=O)n1 [decitabine] (first compound 2 µM, partner dose 0.1 µM) | 88.4% | 110% | 106% | 116% | 97.7% | 108%
O=C(O)c1ccc2c(c1)nc(Nc1cccc(Cl)c1)c1ccncc12 + Cc1nc(Nc2ncc(C(=O)Nc3c(C)cccc3Cl)s2)cc(N2CCN(CCO)CC2)n1 [dasatanib] (first compound 0.4 µM, partner dose 0.004 µM) | 88.5% | 67.8% | 78.1% | 101% | 86.1% | 78.4%
O=C(O)c1ccc2c(c1)nc(Nc1cccc(Cl)c1)c1ccncc12 + CN(C)S(=O)(=O)c1ccc2c(c1)/C(=C/c1cc3c([nH]1)CCCC3)C(=O)N2 [SU6656] (first compound 0.4 µM, partner dose 0.4 µM) | 65.9% | 94.7% | 73.9% | 73.3% | 101% | 83.9%
O=C(O)[C@@H]1[O][Sb](=[O])([O][Sb]2(=[O])[O][C@H]([C@H](O)CO)[C@H](O)[C@H](C(=O)O)[O]2)[O][C@H]([C@H](O)CO)[C@@H]1O (stereo partly drawn) [stibogluconate] + C[C@@H]1CCN(C(=O)CC#N)C[C@@H]1N(C)c1ncnc2[nH]ccc12 [CP690550] (first compound 2 µM, partner dose 1 µM) | 108% | 111% | 103% | 101% | 116% | 108%
O=C(O)[C@@H]1[O][Sb](=[O])([O][Sb]2(=[O])[O][C@H]([C@H](O)CO)[C@H](O)[C@H](C(=O)O)[O]2)[O][C@H]([C@H](O)CO)[C@@H]1O (stereo partly drawn) [stibogluconate] + O=C(O)c1ccc2c(c1)nc(Nc1cccc(Cl)c1)c1ccncc12 [CX4945] (first compound 2 µM, partner dose 0.4 µM) | 102% | 95.2% | 79.2% | 88.2% | 82.6% | 96.3%
O=C(O)c1ccc2c(c1)nc(Nc1cccc(Cl)c1)c1ccncc12 + CCc1ccc(CCOc2ccc(CC3SC(=O)NC3=O)cc2)nc1 [pioglitazone] (first compound 0.4 µM, partner dose 2 µM) | 104% | 87.7% | 98.6% | 84.7% | 98% | 92.2%
O=C(Nc1cc(C(F)(F)F)cc(C(F)(F)F)c1)c1cc(Cl)ccc1O + COc1ccc(Cl)c(Nc2nc3ccccc3nc2NS(=O)(=O)c2cccc(NC(=O)C(C)(C)N)c2)c1 [XL147] (first compound 0.016 µM, partner dose 0.8 µM) | 108% | 91.8% | 97% | 91.9% | 108% | 102%
Cn1nnc2c(C(N)=O)ncn2c1=O [temozolomide] + c1cc(-c2cnn3cc(-c4ccc(OCCN5CCCCC5)cc4)cnc23)ccn1 [Dorsomorphin] (first compound 2 µM, partner dose 0.4 µM) | 92.3% | 90.8% | 94.2% | 89.4% | 99.5% | 105%
O=C(O)[C@@H]1[O][Sb](=[O])([O][Sb]2(=[O])[O][C@H]([C@H](O)CO)[C@H](O)[C@H](C(=O)O)[O]2)[O][C@H]([C@H](O)CO)[C@@H]1O (stereo partly drawn) [stibogluconate] + Cn1cc(/C=C2\C(=O)Nc3cccnc32)c2ccccc21 [GW441756] (first compound 2 µM, partner dose 0.4 µM) | 103% | 111% | 94.7% | 103% | 111% | 102%
Cn1nnc2c(C(N)=O)ncn2c1=O [temozolomide] + Cn1cc(/C=C2\C(=O)Nc3cccnc32)c2ccccc21 [GW441756] (first compound 2 µM, partner dose 0.4 µM) | 96.2% | 101% | 74.8% | 97.3% | 117% | 115%
O=C(Nc1cc(C(F)(F)F)cc(C(F)(F)F)c1)c1cc(Cl)ccc1O + Cn1c(=O)n(-c2ccc(C(C)(C)C#N)cc2)c2c3cc(-c4cnc5ccccc5c4)ccc3ncc21 [NVP-BEZ235] (first compound 0.016 µM, partner dose 0.004 µM) | 100% | 98.8% | 91.6% | 106% | 111% | 90.8%
O=C(Nc1ccccc1)c1cc([N+](=O)[O-])ccc1Cl + COc1ccc(COc2ccc(Cc3cnc(N)nc3N)cc2OC)cc1 [GW2580] (first compound 2 µM, partner dose 1 µM) | 96% | 108% | 100% | 103% | 132% | 107%
O=C(Nc1cc(C(F)(F)F)cc(C(F)(F)F)c1)c1cc(Cl)ccc1O + C[C@@H]1CCN(C(=O)CC#N)C[C@@H]1N(C)c1ncnc2[nH]ccc12 [CP690550] (first compound 0.016 µM, partner dose 1 µM) | 97% | 101% | 92.6% | 113% | 88.3% | 109%
O=C(O)c1ccc2c(c1)nc(Nc1cccc(Cl)c1)c1ccncc12 + COC(=O)c1sccc1S(=O)(=O)Nc1ccc(Nc2ccccc2)cc1OC [GSK0660] (first compound 0.4 µM, partner dose 1 µM) | 113% | 89.4% | 83.3% | 88.8% | 111% | 116%
O=C(O)c1ccc2c(c1)nc(Nc1cccc(Cl)c1)c1ccncc12 + C=CCn1c(=O)c2cnc(Nc3ccc(N4CCN(C)CC4)cc3)nc2n1-c1cccc(C(C)(C)O)n1 [MK1775] (first compound 0.4 µM, partner dose 0.02 µM) | 88.4% | 80.4% | 88.8% | 90% | 66.9% | 91.3%
Cc1cc(N2CCOCC2)cc2[nH]c(-c3c(NC[C@@H](O)c4cccc(Cl)c4)cc[nH]c3=O)nc12 + COc1cc2c(Oc3ccc4[nH]c(C)cc4c3F)ncnc2cc1OCCCN1CCCC1 [cediranib] (first compound 0.2 µM, partner dose 0.4 µM) | 108% | 112% | 72.1% | 82.9% | 139% | 82.3%
